44 sequences from the supplement of paper PMC11417369 can be followed below.

The list shows a part of the results.

The subject of the assay is PfAP2-HC AP2 domain (GST-tagged). In words: gcPBM binding intensity (ln(normalized median fluorescence intensity)); higher = stronger DNA binding. In short, it runs like this:
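Using an Agilent 4 × 180k array, primer-extended double-stranded 36-bp intergenic genomic probes and negative controls were exposed for 1 h to GST-fused P. falciparum DNA-binding domains expressed in E. coli. Binding was carried out in 1× PBS with 1% milk, 0.2 mg/ml BSA, 0.5% salmon testes DNA and 0.03% Triton X-100, and protein was detected with Alexa488 anti-GST antibody and a 488 nm scan. Binding intensity is the highest Masliner-normalised natural-log median intensity across replicate spots of either probe orientation.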
For “TTTTGAATATTTGGTCGTACGTAAAAATAGATAATT [XGTACX_site5755]”, the “gcPBM binding intensity (ln)” value was 9.49.

With “TTTCATATTTTGTCCTGTTTTTTTTTTTTTTTTCTT [CACACA_negctrl_site993]”, the “gcPBM binding intensity (ln)” value came to 9.69.

Take “TATTTTATGTAAATTGGTACACATATGTCAGTAAAA [XGTACX_site7111]”: the “gcPBM binding intensity (ln)” value turned out to be 9.57. With “GATGCTAAAATTTATACACACAAAAAAAAAAAATTC [CACACA_site3284]” the figure was 9.76; with “AAAAAAAAAAAATATACACACACACCGACACATAAA [CACACA_site9270]”, 10.9; with “CAATAATTTTTTGTGGGTACAAATAATTTTTTAAAT [XGTACX_site2407]”, 9.34. With “AGGAGAAAAGATAAAGACTTCAAGAAAAAAAAATAA [TGCATGCA_negctrl_site258]” the figure was 9.34; with “AAAATATAAAAAGTCACACATATATATATTTATTTA [CACACA_site4872]”, 9.64; with “TTGAATGAAAAAATTTGTACTCATATAAATAATTTA [XGTACX_site4628]”, 9.29. On to “CTTAAATTTTTAAATACACACATACACCCATACACA [CACACA_site4461]”, for which the “gcPBM binding intensity (ln)” value is 10.4. With “AAACCCTATTCAATGCAATAATTTTATAATTTTTTT [TGCATGCA_negctrl_site434]” the figure was 9.56; with “TTTTTTTTAAATATCACACACATATAATATATTCTA [CACACA_site3668]”, 9.85. On to “AAATTATCTTAATAGGATGTTCAAGGAGAAAGATGA [CACACA_negctrl_site1032]”, for which the “gcPBM binding intensity (ln)” value is 9.7.

On to “TTTATTATAATATGTTGTACAAGACGTTTCAGTATA [XGTACX_site4486]”, for which the “gcPBM binding intensity (ln)” value came to 9.47. As for “TAAATTAATACCTATGCACACATTTTTTTTTTTAAA [CACACA_site1238]”, the “gcPBM binding intensity (ln)” value stood at 9.71.

Take “TTTTCTTACACGAATTTTAAATTCAATATTAAACAT [CACACA_negctrl_site286]”: the “gcPBM binding intensity (ln)” value was 9.39. With “TTACCTTTTTCTAATGGTACACATAAAATATCATTT [XGTACX_site6825]” the figure was 9.63. To “GAGTTAATTTTTTCGTGTACTTGAAAATATTTTTTT [XGTACX_site6392]” belongs 9.7; to “TTAGCAACTATTACTACACACATTTGTATATAACTT [CACACA_site6850]”, 10. Consider “GTGGAAATATAACACATTTTTTTTAATAATTATATT [TGCATGCA_negctrl_site522]”, for which the “gcPBM binding intensity (ln)” value was 9.55. To “TAGCGGCGGTATCATGCACACGTATATATTGTAACA [CACACA_site8453]” belongs 9.76. With “ATAGTTTTATATAAATGTACAAATGATTTCAAATAG [XGTACX_site8236]” the figure was 9.61. With “AACATGTATATATTATGTACATATGTTAAAATGATA [XGTACX_site6217]” the figure was 9.8; with “TAAAAGTAAAGACATGCATGCATTGGTATCTTTTAC [TGCATGCA_site665]”, 9.67.

On to “TATAATAAAACTTTTACACACTTTAAAAAAAAAAAA [CACACA_site6392]”, for which the “gcPBM binding intensity (ln)” value amounted to 9.59. To “GACCCACTTTTCTGCACACATAAAAAATATATAAAT [CACACA_site4483]” belongs 9.87; to “TTTATATTTAAATATATATGAGAAAACACAAAATAT [TGCATGCA_negctrl_site211]”, 9.58; to “TATATATATATATATATACACACGTATATATATACA [CACACA_site4155]”, 10.1. With “ATATCTTTGCAAAGATGTACTTGTAAAAATATATGA [XGTACX_site768]” the figure was 9.52; with “TAATATCAATATAAAGTACACACTATAGTATGTATT [CACACA_site2280]”, 9.79. With “TAGTTACTTCTTATATAAAATATGTATATAAAAATA [GTGCAC_negctrl_site190]” the figure was 9.33; with “TTGTTTGTTGTAACGTGTACAGATAAAAATAAAGGG [XGTACX_site375]”, 9.68; with “TTCATATTATAGTGCACACAAAAATATATATATGGT [CACACA_site2855]”, 9.87. For “TCTCTCATTTATTTTTGTACTTAATCCAGCACGTTT [XGTACX_site1369]”, the “gcPBM binding intensity (ln)” value worked out at 9.67. With “ACATATTAATTATAAAGTACATATATATATATATAT [XGTACX_site4540]” the figure was 9.84; with “GCTTCATTTTAAACTTGTACTTATTTTTTGGTAAAT [XGTACX_site8879]”, 9.78; with “GTTGTGTAATTCGTAACACACATAAAATATAAATAA [CACACA_site7799]”, 9.83. “AAAAAAAAAAAAAAAAAAAAAAAAATATATATATAT [CACACA_negctrl_site436]”: the “gcPBM binding intensity (ln)” value was determined as 9.68. To “TTACTATATAATATGTGTACACAACATATAATATAT [XGTACX_site1383]” belongs 9.71; to “TTTTTTTTTTGATGTTGTACTTATATACTATATAAT [XGTACX_site2778]”, 9.65; to “CATTTTTAAAAAAATTGTACAAAACATATATGTGTA [XGTACX_site3396]”, 9.52. To “TATTAAAAGTAAAAAACACACATGGATATATACATA [CACACA_site3959]” belongs 9.88; to “TTCCTTTTGAACTCTCGTACGCGTAGGTGTTATTAT [XGTACX_site6264]”, 9.68.

With “TATGTGTGACAAAATTGTACGGTCTCTTTATTTTGT [XGTACX_site2679]”, the “gcPBM binding intensity (ln)” value came out at 9.7.
